{
  "source": "paper PMC10726135",
  "note": "The other results are listed elsewhere or left out. At the low end of the ranking the order means little. The protein was read in a cell extract, so binding may be indirect.",
  "data": [
    {"target": "T1, HNF4alpha2 (COS-7 nuclear extract) (UniProt P41235)", "T1 sequence": "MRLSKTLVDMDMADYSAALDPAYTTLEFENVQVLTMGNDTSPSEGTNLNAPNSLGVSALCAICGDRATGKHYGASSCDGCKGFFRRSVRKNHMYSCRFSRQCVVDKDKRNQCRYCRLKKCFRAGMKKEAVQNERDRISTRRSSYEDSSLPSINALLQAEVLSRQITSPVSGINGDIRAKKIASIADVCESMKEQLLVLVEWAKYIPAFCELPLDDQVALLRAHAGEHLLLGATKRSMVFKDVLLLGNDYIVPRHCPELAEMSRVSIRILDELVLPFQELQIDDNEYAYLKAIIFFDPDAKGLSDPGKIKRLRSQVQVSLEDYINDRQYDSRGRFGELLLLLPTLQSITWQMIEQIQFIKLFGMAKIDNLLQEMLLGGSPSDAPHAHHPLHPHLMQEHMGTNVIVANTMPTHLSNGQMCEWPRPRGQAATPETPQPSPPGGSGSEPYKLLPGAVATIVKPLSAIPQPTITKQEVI", "test": "protein-binding microarray", "conditions": "COS-7 nuclear extract on double-stranded Agilent 4x180k PBM; binding buffer, salt, pH and temperature not given; high values mean tight binding; double strand, one strand shown; sequences stand for … in …GCCTAGGGAGATTAGAGTATCGGTCGA", "values": [
      {"sequence": "GATGAAAGGAGCTTGGGAAGACAGATGTGA", "binding signal (log2 normalized intensity)": -0.318},
      {"sequence": "CCCCCACCTCTTTTCCCAGACGTGGTGGAT", "binding signal (log2 normalized intensity)": 3.63},
      {"sequence": "AGGAGCTTGTAAGCCACAGTACAAAGGTGA", "binding signal (log2 normalized intensity)": 3.66},
      {"sequence": "AACCTCCTTTGAGATAGCTATGATTATCCT", "binding signal (log2 normalized intensity)": -0.964},
      {"sequence": "TAAGGAACTGTGTAATAAGGAGTTGTGTGA", "binding signal (log2 normalized intensity)": 1.03},
      {"sequence": "GGCTACTTTCCTCCCACCTTCGAGCTTCAC", "binding signal (log2 normalized intensity)": 1.19},
      {"sequence": "TTATTATTTGTCTGGGTTATCAGTCTCTGT", "binding signal (log2 normalized intensity)": 2.14},
      {"sequence": "AGAGGGAAAGCGAGAGAGCCTGGACACACG", "binding signal (log2 normalized intensity)": -1.04},
      {"sequence": "TGAAGCCGTCCTGTCCTGGACTTTCCTTTG", "binding signal (log2 normalized intensity)": 2.85},
      {"sequence": "TAATCTCAGATATGCTAATTAACCCTCCTG", "binding signal (log2 normalized intensity)": 0.717},
      {"sequence": "ACAAGATCAATCAATTTACCTCTGCTCCCC", "binding signal (log2 normalized intensity)": 2.08},
      {"sequence": "TTAGAGAAAAAGCCCAAGAAACTTCAAAGA", "binding signal (log2 normalized intensity)": -1.15},
      {"sequence": "GTGCTTGTCTGACTGCTGCCAAAGGTAAAA", "binding signal (log2 normalized intensity)": 0.539},
      {"sequence": "CCCCTATGTCTAGGACTCTAGTGTTCTCTT", "binding signal (log2 normalized intensity)": 1.15},
      {"sequence": "GACGCGGTCTCAGTTAACGGGGACGCTTTA", "binding signal (log2 normalized intensity)": -1.07},
      {"sequence": "GGAATTCCTCCTCCTGTTTGTATTCCTTGT", "binding signal (log2 normalized intensity)": 1.24},
      {"sequence": "CTGTTGACCTTGAAATGCCATGTGATCTCT", "binding signal (log2 normalized intensity)": 2.1},
      {"sequence": "AGGGTCAGAGGACAGGCTAATGAGATAATG", "binding signal (log2 normalized intensity)": -1.16},
      {"sequence": "TGAAAACAGGGCAAGGAACGGAATGTGTGA", "binding signal (log2 normalized intensity)": -0.72},
      {"sequence": "CGGCGGCGCAGACGGCGGATCCTCCCAGCC", "binding signal (log2 normalized intensity)": -1.11},
      {"sequence": "AGAAATGCCAAGATCAGGGCTAAGATCAGA", "binding signal (log2 normalized intensity)": -1.04},
      {"sequence": "TGTTTCTTATCACACAGTCAACATGTCATT", "binding signal (log2 normalized intensity)": 0.747},
      {"sequence": "AGATACGCCTGAACTTTGATCAGCATTCAA", "binding signal (log2 normalized intensity)": 5.06},
      {"sequence": "GAGCCATAGCCCAAGTTCAAAGGTTATCTG", "binding signal (log2 normalized intensity)": 5.92},
      {"sequence": "CACAGGTAAACATTTGCCTTTAGGGCCCCC", "binding signal (log2 normalized intensity)": 2.56},
      {"sequence": "TACCCACGTTTAGGATTAAACACGTTTTAT", "binding signal (log2 normalized intensity)": 0.317},
      {"sequence": "ACCCTTTTGCCCTTTGAGCTTCTGTCTTGG", "binding signal (log2 normalized intensity)": 4.16},
      {"sequence": "TACCAACAGGCTTAACATAAAGGGTTGAAG", "binding signal (log2 normalized intensity)": -0.282},
      {"sequence": "GGATGACCCAGATAGGCAAAGTGGCTAGGA", "binding signal (log2 normalized intensity)": -1.01},
      {"sequence": "CCTCTATCCTCCACAAACAAACAGGGTGGC", "binding signal (log2 normalized intensity)": -0.292},
      {"sequence": "CAAGTTGGTTTACATTCTTAGAAGATAAAG", "binding signal (log2 normalized intensity)": 0.954},
      {"sequence": "TAATTCTGTGTCATCTGAACTCTGACCAAC", "binding signal (log2 normalized intensity)": 3.89},
      {"sequence": "AGGTAGATGAATCCACAAAGATAAGAAAAA", "binding signal (log2 normalized intensity)": -1.26},
      {"sequence": "TATTTGATGGTACAAATTCATGGCTGGGCT", "binding signal (log2 normalized intensity)": -0.775},
      {"sequence": "TGACTGGGGTTAACGTCCAAAGGTAATGGT", "binding signal (log2 normalized intensity)": 2.32},
      {"sequence": "GCATGTGGGGGCCACGCACACCTGGATCTT", "binding signal (log2 normalized intensity)": -1.09},
      {"sequence": "CAGTCCTTCAGTCCTTCCCCCGCCAGATGT", "binding signal (log2 normalized intensity)": 4.84},
      {"sequence": "CTCACAGCTCAATCCAACAAATAGACATTC", "binding signal (log2 normalized intensity)": -0.505},
      {"sequence": "AGGGAAGAGATCATGGCCGATCGACTAGCG", "binding signal (log2 normalized intensity)": -1.14},
      {"sequence": "GTCCACAGAAAGGCAAGAAGTATGACAACA", "binding signal (log2 normalized intensity)": -0.936},
      {"sequence": "AAGGGCTTCAGAGTCGATAGTCCAAATTCT", "binding signal (log2 normalized intensity)": 1.45},
      {"sequence": "GGTTCTGGGGTGATTACCCTTATCTTATCT", "binding signal (log2 normalized intensity)": 1.5},
      {"sequence": "AGGCGGAACAAGGCTGAAGGGAAGCTCTGG", "binding signal (log2 normalized intensity)": -1.28},
      {"sequence": "GAGCCAGGTGTGCTGAGGAAACTGACAGGA", "binding signal (log2 normalized intensity)": -1.05},
      {"sequence": "ACTGATAACGCCCGCCTAACCTTGAGGAGC", "binding signal (log2 normalized intensity)": -1.1},
      {"sequence": "TTATATGTCCACCTTATCTAATGCCCCAAA", "binding signal (log2 normalized intensity)": 3.43}
    ]}
  ]
}
